Data as given in the supplement of paper PMC10723795.
Counter-ions that a name gives are not always drawn. This is one part of the list.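 How the source made its calls: active = more than 2 SD below the DMSO mean: under 0.85 at 10 µM or 0.885 at 1 µM; inactive = the rest.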 Single values are uncertain, as repeats are few or missing. *1 amine or outer side, *2 acyl side, *3 side chain or, on linkers, in order; H or OH if unused. Where a SMILES comes first, the peptide text is derived from it. Bridges are numbered along the chain shown (N, C = ends). Roman numbers before positions name the chains, in order. [ ]: non-standard residue; d: D form. Hexamethylenediamine = C(CCCN[*:2])CCN[*:1]; Dip = N[CH](C(=O)O)C(c1ccccc1)c1ccccc1; Chg = N[CH](C(=O)O)C1CCCCC1; NMeA = CN[CH](C)C(=O)O

Test system: RPE1
Assay: nucleolar normality score relative to DMSO (fraction of DMSO control); RPE1 is a non-cancer human cell line; higher = more normal nucleoli (less nucleolar stress)
Details: 24 h
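Further: fixed cells immunolabelled for nucleolin and UBF, 40 image fields per well in 384-well plates, per-cell score = nucleolin nucleolar/nucleoplasm intensity ratio divided by the matching UBF ratio.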

Compound | nucleolar normality score (1 µM) | nucleolar normality score (10 µM)
COc1ccc(S(=O)(=O)NCc2ccc(C(=O)NCCc3ccc(Cl)cn3)cc2)cc1 | inactive: 1.03 | inactive: 1.01
C=CC(=O)N1CC(=Cc2ccc([N+](=O)[O-])cc2)C(=O)C(=Cc2ccc([N+](=O)[O-])cc2)C1 | active: 0.524 | active: 0.587
C=C1C[C@@]23CC[C@H]4[C@@](C)(CCC[C@@]4(C)C(=O)O[C@@H]4O[C@H](CO)[C@@H](O)[C@H](O)[C@H]4O)[C@@H]2CC[C@]1(O[C@@H]1O[C@H](CO)[C@@H](O)[C@H](O)[C@H]1O[C@@H]1O[C@H](CO)[C@@H](O)[C@H](O)[C@H]1O)C3 [Stevioside] | inactive: 1.06 | inactive: 1.05
N#CC(=Cc1ccc(O)c(O)c1)C(=O)NCc1ccccc1 [AG-490 (Tyrphostin B42)] | inactive: 1.03 | inactive: 1.04
COc1ccccc1-c1cc(Nc2cccc(CS(N)(=O)=O)c2)ncn1 | inactive: 0.982 | inactive: 1.06
CC1(COc2ccc3c(c2)ncn3-c2ccc3cccc(N4CCC(N)CC4)c3n2)COC1 | inactive: 1.01 | inactive: 1.03
C[C@@H](Oc1cc(-n2cnc3ccc(CN4CCN(C)CC4)cc32)sc1C(N)=O)c1ccccc1C(F)(F)F | inactive: 1.01 | inactive: 0.902
Cc1cccc(C)c1NC(=O)C1CCCCN1C (stereo unspecified) [Mepivacaine] | inactive: 1.1 | inactive: 1.07
FC(F)(F)c1ccc(CNc2ccc(Cc3c[nH]c4ncc(Cl)cc34)cn2)cn1 [Pexidartinib (PLX3397)] | inactive: 1.06 | inactive: 1.05
CC(C)[C@H](CO)Nc1nc(Nc2cccc(Cl)c2)c2ncn(C(C)C)c2n1 [Purvalanol A] | inactive: 1 | inactive: 1.04
CNC(C)C(=O)NC(C(=O)N1CCCC1C(=O)NC(C(=O)NCCCCCCNC(=O)C(NC(=O)C1CCCN1C(=O)C(NC(=O)C(C)NC)C1CCCCC1)C(c1ccccc1)c1ccccc1)C(c1ccccc1)c1ccccc1)C1CCCCC1 (stereo unspecified) (I: H-[NMeA][Chg]P[Dip] / II: H-[NMeA][Chg]P[Dip]; linker I:C-II:C via Hexamethylenediamine; configuration not given here) | inactive: 1.03 | inactive: 1.01
CC(=O)c1cc([N+](=O)[O-])c(Sc2cccc(Cl)c2Cl)s1 | inactive: 0.998 | inactive: 1.02
CNC(=O)c1ccc(-c2cnc3ncc(Cc4ccc5ncccc5c4)n3n2)cc1F | inactive: 0.96 | inactive: 0.934
O=C(NCc1ccncc1)C12CC3CC(C1)CC(c1ccc(Cl)cc1)(C3)C2 | inactive: 1.02 | inactive: 1.1
COc1ccc(-c2cnc3c(-c4cccc5ncccc45)cnn3c2)cc1 | inactive: 0.963 | inactive: 0.909
COc1cc2ncnc(Oc3cccc(NC(=O)Nc4cc(C(C)(C)C(F)(F)F)on4)c3)c2cc1OC | inactive: 1.04 | inactive: 0.937
COc1cc2c(cc1OC(C)C)[C@H](c1ccc(Cl)cc1)N(c1ccc(N(C)C[C@H]3CC[C@H](N4CCN(C)C(=O)C4)CC3)cc1)C(=O)C2 | inactive: 0.911 | inactive: 0.914
CCc1cncnc1N1CCN(Cc2nc3ccc(C(F)(F)F)cc3[nH]2)CC1 | inactive: 0.999 | inactive: 1.04
CN[C@H]1CN(c2ccc3c(=O)c(C(=O)O)cn(-c4nccs4)c3n2)C[C@@H]1OC [Voreloxin (SNS-595) hydrochloride] | inactive: 1.01 | inactive: 1.01
CCCCOc1c(C(=O)c2c(F)cc(C)cc2F)c[nH]c2nncc1-2 | inactive: 0.997 | inactive: 1.09
Nc1ccccc1NC(=O)c1ccc(CNC(=O)OCc2cccnc2)cc1 [Entinostat (MS-275)] | inactive: 1 | inactive: 1.08
CN(C)CC[C@H](CSc1ccccc1)Nc1ccc(S(=O)(=O)NC(=O)c2ccc(N3CCN(Cc4ccccc4-c4ccc(Cl)cc4)CC3)cc2)cc1[N+](=O)[O-] | inactive: 0.931 | inactive: 0.987
Nc1ncn([C@H]2C[C@H](O)[C@@H](CO)O2)c(=O)n1 [Decitabine] | inactive: 1.03 | inactive: 1.06
O=C(Cc1ccc(-c2ccc(OCCN3CCOCC3)cc2)cn1)NCc1ccccc1 | active: 0.826 | active: 0.755
O=c1cc(-c2ccc(O)c(O)c2)oc2cc(O)cc(O)c12 [Luteolin] | inactive: 1.06 | inactive: 1.13
O=C(NOCCO)c1ccc2cncn2c1Nc1ccc(I)cc1F | inactive: 1.04 | inactive: 1.04
CCOc1cc(C(=O)N2CCC(N3CCN(C)CC3)CC2)ccc1Nc1ncc2c(n1)N(C1CCCC1)c1ccccc1C(=O)N2C | inactive: 1.03 | inactive: 1.01

Compound | nucleolar normality score (1 µM) | nucleolar normality score (10 µM)
CC(C)N(CCCNC(=O)Nc1ccc(C(C)(C)C)cc1)C[C@H]1O[C@@H](n2ccc3c(N)ncnc32)[C@H](O)[C@@H]1O | inactive: 0.899 | active: 0.81
CCS(=O)(=O)Nc1ccc2[nH]c(O)c(C(=Nc3ccc(CN4CCCCC4)cc3)c3ccccc3)c2c1 [Hesperadin] | inactive: 1.01 | active: 0.824
Cc1cc(Nc2ccc(NC(=O)c3ccc(Nc4ccnc5ccccc45)cc3)cc2)nc(N)n1 | inactive: 1.06 | inactive: 1.06
O=c1cc(N2CCOCC2)oc2c1ccc1ccccc12 | inactive: 0.956 | inactive: 0.988
CN1CCN(c2ccc(-c3ccncc3-c3cc(F)c(O)c(F)c3)cc2)CC1 | inactive: 1.01 | inactive: 1.07
CCN(CCO)CCCOc1ccc2c(Nc3cc(CC(=O)Nc4cccc(F)c4)[nH]n3)ncnc2c1 [Barasertib (AZD1152-HQPA)] | inactive: 0.928 | inactive: 0.987
C=CC(=O)N1CCC(Oc2cc3c(Nc4ccc(Cl)c(Cl)c4F)ncnc3cc2OC)CC1 [Poziotinib (HM781-36B)] | inactive: 1.05 | inactive: 1.07
CO[C@@H](C(=O)N1Cc2[nH]nc(NC(=O)c3ccc(N4CCN(C)CC4)cc3)c2C1)c1ccccc1 | inactive: 0.998 | inactive: 0.977
Cn1ncc(Cl)c1-c1cc(C(=O)N[C@H](CN)Cc2cccc(F)c2)sc1Cl | active: 0.483 | active: 0.407
CC(C)(C)C[C@@H]1N[C@@H](C(=O)N[C@H]2CC[C@H](O)CC2)[C@H](c2cccc(Cl)c2F)[C@]12C(=O)Nc1cc(Cl)ccc12 | inactive: 1.05 | inactive: 1.02
O=C(O)c1cc(O)c2c(c1)[C@@H]([C@H]1c3cc(C(=O)O)cc(O)c3C(=O)c3c(O[C@@H]4O[C@H](CO)[C@@H](O)[C@H](O)[C@H]4O)cccc31)c1cccc(O[C@@H]3O[C@H](CO)[C@@H](O)[C@H](O)[C@H]3O)c1C2=O [Sennoside B] | inactive: 0.974 | inactive: 0.878
COc1c(O[C@@H]2O[C@H](CO)[C@@H](O)[C@H](O)[C@H]2O)cc2occ(-c3ccc(O)cc3)c(=O)c2c1O [Tectoridin] | inactive: 0.98 | inactive: 0.856
CCC[C@H](Nc1nc(-c2ccc(NC(=O)NCC)c(OC)c2)ncc1C)c1cccnc1 [Lexibulin (CYT997)] | active: 0.833 | inactive: 0.945
COc1cc(Nc2ncc(F)c(Nc3ccc4c(n3)NC(=O)C(C)(C)O4)n2)cc(OC)c1OC [R406 (free base)] | inactive: 0.909 | inactive: 0.923
COc1ccc(C(=O)Nc2sc3c(c2C(N)=O)CCCC3)cc1OC | active: 0.802 | inactive: 1.04
Cc1ccc(NC(=O)c2ccc(CN3CC[C@H](N(C)C)C3)c(C(F)(F)F)c2)cc1Nc1nccc(-c2cncnc2)n1 [Bafetinib (INNO-406)] | inactive: 1.08 | inactive: 1.06
Cn1c(=O)c2c(ncn2CC(=O)O)n(C)c1=O [Theophylline-7-acetic acid] | inactive: 1.06 | inactive: 0.905
CS(=O)(=O)c1cccc(CNc2nc(Nc3ccc4c(c3)CCC(=O)N4)ncc2C(F)(F)F)c1 | inactive: 0.96 | inactive: 1.02
CC(C)(C)n1nc(-c2ccc(Cl)cc2)c2c(N)ncnc21 | inactive: 0.992 | active: 0.825
CC1(C)CCC(CN2CCN(c3ccc(C(=O)NS(=O)(=O)c4ccc(NCC5CCOCC5)c([N+](=O)[O-])c4)c(Oc4cnc5[nH]ccc5c4)c3)CC2)=C(c2ccc(Cl)cc2)C1 [Venetoclax (ABT-199, GDC-0199)] | inactive: 1.1 | inactive: 1.09
O=C(O)CC[C@H]1CC[C@@](c2cc(F)ccc2F)(S(=O)(=O)c2ccc(Cl)cc2)CC1 | inactive: 1.02 | inactive: 0.894
COc1ccc(CCNCc2ccc(OCc3ccc(Cl)nc3)c(OC)c2)cc1OC | inactive: 0.921 | inactive: 1.03
CS(=O)(=O)CCNCc1ccc(-c2ccc3ncnc(Nc4ccc(OCc5cccc(F)c5)c(Cl)c4)c3c2)o1 | inactive: 1.05 | inactive: 1.09
CS(=O)(=O)CCNCc1ccc(-c2ccc3ncnc(Nc4ccc(OCc5cccc(F)c5)c(Cl)c4)c3c2)o1 [Lapatinib] | inactive: 1.04 | inactive: 1.14
C=CC(=O)Nc1cccc(Nc2nc(Nc3ccc(N4CCN(C(C)=O)CC4)cc3OC)ncc2C(F)(F)F)c1 [Rociletinib (CO-1686, AVL-301)] | inactive: 1.01 | inactive: 1.05
C/C(=N\NC(=O)c1cccc(S(=O)(=O)N2CCOCC2)c1)c1cc(Cl)ccc1O | inactive: 0.995 | inactive: 0.924
